# Assay results: the supplement of paper PMC3334620
# Over roughly 33,000 sequences, “E-score (-0.5 to 0.5)” has its median near -0.035; the highest 2% begin near 0.34. This is one part of the list.
# Target: T1, Mot3 (UniProt P54785)
# T1 sequence: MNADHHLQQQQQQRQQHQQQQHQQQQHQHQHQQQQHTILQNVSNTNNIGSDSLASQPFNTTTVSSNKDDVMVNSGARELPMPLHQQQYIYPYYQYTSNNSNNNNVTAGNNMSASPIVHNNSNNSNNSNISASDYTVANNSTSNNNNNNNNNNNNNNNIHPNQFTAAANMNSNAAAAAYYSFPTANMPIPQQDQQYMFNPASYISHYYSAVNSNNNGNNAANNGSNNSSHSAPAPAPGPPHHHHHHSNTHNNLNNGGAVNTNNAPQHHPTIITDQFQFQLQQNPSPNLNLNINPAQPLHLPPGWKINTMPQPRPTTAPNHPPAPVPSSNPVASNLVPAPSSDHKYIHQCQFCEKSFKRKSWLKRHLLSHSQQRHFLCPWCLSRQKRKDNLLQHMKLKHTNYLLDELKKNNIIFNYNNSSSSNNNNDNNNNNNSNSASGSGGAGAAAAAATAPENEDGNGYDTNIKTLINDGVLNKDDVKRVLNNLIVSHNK
# Assay: PBM E-score (8-mer binding enrichment) (E-score (-0.5 to 0.5)); higher = stronger / more preferred TF binding; most listed sequences are background and not binding sites
# Conditions: protein concentration: 200 nM; construct: GST-full length
# Outline: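 Using PURExpress in vitro transcription/translation, GST-tagged yeast transcription factors were made in full-length or DNA-binding-domain form. These were applied at about 100-200 nM to double-stranded universal all-10-mer Agilent arrays, and bound protein was detected with fluorescent anti-GST. Scans were normalised with masliner before the Universal PBM Analysis Suite assigned E-scores to ungapped eight-base words pooled with their reverse complements.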
row,Sequence,PBM E-score
1,ACAATTCC,-0.0244
2,ATCACGGA,-0.225
3,ACAGCGGT,-0.085
4,GGCGTTAA,0.149
5,GTCAACTA,0.0667
6,ACAGAGCC,-0.0166
7,CCGTGTCG,0.126
8,ACGAGTCT,-0.169
9,CTGGCAGA,-0.06
10,CACCAATC,-0.27
11,CACGTTAG,0.0636
12,CTACGTCA,0.0751
13,AATGACCC,-0.145
14,GAATCAGC,-0.171
15,ATATTGGG,-0.354
16,CCAAAGCG,-0.23
17,CATGTCAA,0.336
18,AGTTAACT,-0.0197
19,CAGGCCAA,0.0583
20,ATCTCAAC,0.0941
21,ACAGGGTG,-0.0508
22,CCCTATTA,-0.0975
23,AGAGCGCG,-0.168
24,AATGTCGG,-0.024
25,ACTCGATA,0.11

row,Sequence,PBM E-score
1,CATCGAAA,-0.148
2,TATCATCA,-0.0719
3,AATACGCG,0.354
4,CCCCTATA,-0.149
5,ACGAAATC,0.00888
6,AGTCGAAC,-0.157
7,AGCGATCG,-0.162
8,CAATCGCC,-0.0892
9,ATCAGCAC,0.118
10,AATTCAAT,0.0469
11,GAACATGC,0.202
12,CCCTCACC,-0.256
13,CGCAAATA,-0.00364
14,GATTTCAC,0.0353
15,GCCGCCAA,-0.242
16,GGGCGTCA,-0.178
17,GCTTTAAA,0.183
18,CCGCGTCG,-0.093
19,AAGAGGGG,-0.181
20,ATACATAT,0.359
21,AATGTAAG,0.201
22,ACGCAGGA,0.183
23,GATAATAC,0.0195
24,CAACACAA,0.254
25,ATAACATG,0.36

row,Sequence,PBM E-score
1,AGCGCTGC,-0.0677
2,ACCCAATA,-0.122
3,CCGACGCA,-0.00548
4,AACCGGAA,-0.109
5,TGGGGTAA,-0.0865
6,AATGGGCT,-0.0612
7,GCGCGGCC,-0.119
8,CATGCGCA,0.0605
9,ACGCCCTG,-0.0695
10,AACCCTAC,0.0104
11,ATTATACG,0.101
12,ATGGACCC,-0.103
13,ACTTGCTG,-0.0624
14,ACGGCCTC,-0.228
15,GTTTACAA,0.336
16,TCCGCCAA,-0.196
17,CTCATTAC,0.257
18,GGCATGCA,0.146
19,GGCTCGTA,0.112
20,AATAAACG,0.135
21,AGATATTC,-0.0722
22,ACATCTTG,-0.0667
23,AGCCTCTA,-0.195
24,CCCACCCC,-0.236
25,CAGAGTGC,0.0511

row,Sequence,PBM E-score
1,AACAGGGA,0.0867
2,CGAATGCA,0.0475
3,AGGAGCAC,-0.115
4,CATGTGTA,0.331
5,AGGCCAAG,-0.167
6,CAGCACCG,-0.204
7,CGGAGATA,-0.157
8,AGTCCAGA,-0.0476
9,AGGAGCTA,-0.0789
10,ATCCCGTA,0.0951
11,AAGGGATC,-0.0928
12,ATCGGGAC,-0.215
13,CGTCTCCA,-0.0393
14,ACAAATAC,0.182
15,CTACCCTA,-0.0964
16,TCCTCTAA,-0.0368
17,TAGGGTGA,-0.116
18,CCAGACAA,-0.209
19,TACTACGA,0.172
20,TAACCCGA,-0.0309
21,GACTGCAC,-0.0356
22,GGTCACAC,-0.131
23,ACGACTTA,-0.161
24,CCGAGTAA,0.0451
25,CTGAAGAC,-0.108

row,Sequence,PBM E-score
1,AAGTGCTG,-0.0462
2,TGATAGAA,0.0235
3,AATGTTGA,0.162
4,GATTCTTA,0.0989
5,AAAGGCTT,-0.0548
6,TCTCCAAA,-0.0729
7,CGCTATCC,-0.215
8,AGGTCTAC,-0.138
9,ACTCATTC,-0.0917
10,GTATATTA,0.25
11,AATTCTGG,0.107
12,CATCGAAG,-0.163
13,ATTCGTGC,0.212
14,GATTCGTA,0.028
15,AACAACCC,0.158
16,CTGTCCTA,-0.0816
17,CCCCTTAG,-0.265
18,ACTAGTCG,-0.0559
19,CGATTGCA,0.133
20,ACTCTAAG,-0.24
21,GCTGTTCC,-0.0657
22,ATGCTATG,0.19
23,AAGTTGGC,-0.142
24,ATCAGGGA,-0.198
25,GCCATCCA,-0.192

row,Sequence,PBM E-score
1,CGTGTGAC,0.0174
2,CCGGAGAA,-0.176
3,ATCTAGTA,0.113
4,GTCCGTAA,-0.0328
5,ACTTATTA,0.149
6,ACCAGTTC,-0.242
7,CATAAGCG,-0.0747
8,CCTTGGCG,-0.0871
9,CGAATAGA,-0.209
10,GCACTCGA,-0.0139
11,CTTCCACC,-0.0763
12,CCGGTACG,-0.199
13,AGGAGTAA,0.0475
14,GAGCTTAA,-0.0706
15,ATGACTGA,-0.11
16,GAACCGCA,-0.0522
17,AACCTAGA,-0.0927
18,AAGCAACG,0.0783
19,GTCTCTTA,0.0107
20,CGCATTCA,0.03
21,AATGCTAC,0.0517
22,CTAGTGGA,-0.158
23,ACGAAACT,-0.0505
24,GCGCCCAC,-0.347
25,AGAGGGCA,0.0326

row,Sequence,PBM E-score
1,ATAGCGAC,0.086
2,ACATGTCT,0.235
3,AAAGTGAG,-0.0909
4,CGCAGCGC,-0.103
5,ATTCGTCC,-0.0868
6,ATATACGA,0.14
7,ATGATCAA,0.0374
8,GGTCCTAC,-0.276
9,CCGGTTAC,0.00099
10,ATCAACCA,-0.172
11,CCGAGCCG,-0.323
12,AGCGCTGA,-0.188
13,CATGGCAG,-0.0253
14,GCTGATCA,-0.241
15,TATTGAAA,0.0575
16,ATTCTTGA,0.0207
17,ATTGCCCG,-0.207
18,ACGGGTCG,-0.0828
19,ATATCACC,0.0341
20,CGCGCCAA,-0.0132
21,TGAAGGAA,0.434
22,CCGTTCTA,0.17
